At least one peptide structure holds a part that was inferred or is arguable (an end, a ring closure or a residue). Residues, ends and D or L forms follow the SMILES beside them. No end group written: not given here.
Test system: Blood Pressure of Anesthetized Rats
Assay: Blood pressure bioassay in urethane-anesthetized rats, peptides injected intravenously
Type: in vivo, male Sprague-Dawley rats
Parameters: key to Duration of blood pressure effect: +: short-lasting blood pressure elevation at all doses; ++: short-lasting blood pressure elevation at low doses; +++: long-lasting elevation at low doses
Settings: i.v.; for Maximal increase in blood pressure mm Hg diastolic / Maximal increase in blood pressure mm Hg systolic: over the dose-range tested (nmol/kg)
Protocol: Bioassays were conducted on male Sprague-Dawley rats, weighing 250-450 g, and anesthetized by an intraperitoneal injection of a 25 percent urethane solution (1.25 g/kg). The left femoral artery was cannulated with PE 50 polyethylene tubing for monitoring of blood pressure with a pressure transducer RP-1500 (Narco Biosystems). Injections of peptides or drugs were made via a PE 10 tubing into the left femoral vein. Respiration was measured by an impedance method by which the respiratory movements of the chest are registered. The method gives indirect information on respiration amplitude. Heart and respiration frequency were obtained by using biotachometer couplers which measure mean frequencies. Body temperature was measured in the rectum with a thermistor (Yellow Springs Instruments) and maintained between 36.5° and 37.5° C. Peptides or drugs were dissolved in sterile H2 O and the volumes injected intravenously were usually 0.1 ml and never exceeded 0.2 ml.

Row | Compound | Dose response relationship of pressor effects (systolic blood pressure, FIG. 2A) | Duration of blood pressure effect | Duration of blood pressure elevation versus dosage (FIG. 2B) | Maximal increase in blood pressure mm Hg diastolic | Maximal increase in blood pressure mm Hg systolic | Pressor activity (blood pressure elevation), in words
1 | CSCC[C@@H](NC(=O)[C@@H](N)Cc1ccccc1)C(=O)N[C@@H](CCCNC(=N)N)C(=O)N[C@@H](Cc1ccccc1)C(N)=O [FD-MRF--NH2, Phe-D-Met-Arg-Phe-NH2] | dose dependent | +++ | from a few seconds to several minutes | 46 mm Hg | 53 mm Hg | 
2 | CSCC[C@H](NC(=O)[C@@H](N)Cc1ccccc1)C(=O)N[C@@H](CCCNC(=N)N)C(=O)N[C@H](Cc1ccccc1)C(N)=O [FMRD-F--NH2] |  |  |  | 0 mm Hg | 0 mm Hg | 
3 | CSCC[C@H](N)C(=O)N[C@@H](CCCNC(=N)N)C(=O)N[C@@H](Cc1ccccc1)C(N)=O [MRF--NH2, Met-Arg-Phe-NH2] (H-Met-Arg-Phe-NH2) |  | ++ |  | 55 mm Hg | 62 mm Hg | 
4 | N=C(N)NCCC[C@H](N)C(=O)N[C@@H](Cc1ccccc1)C(=O)O [RF--OH, L-Arg-L-Phe] |  | ++ |  | 58 mm Hg | 74 mm Hg | 
5 | FMRFY [FMRFY] |  | + |  | 30 mm Hg | 30 mm Hg | 
6 | N=C(N)NCCC[C@H](N)C(=O)N[C@@H](Cc1ccccc1)C(N)=O [RF--NH2, Arg-Phe-NH2] | dose dependent | ++ |  | 65 mm Hg | 76 mm Hg | smallest peptide fragment capable of producing blood pressure elevations
7 | CSCC[C@H](NC(=O)[C@@H](N)Cc1ccccc1)C(=O)N[C@H](CCCNC(=N)N)C(=O)N[C@@H](Cc1ccccc1)C(N)=O [FMD-RF--NH2] |  |  |  | 0 mm Hg | 0 mm Hg | 
8 | CSCC[C@H](NC(=O)[C@H](N)Cc1ccccc1)C(=O)N[C@@H](CCCNC(=N)N)C(=O)N[C@@H](Cc1ccccc1)C(N)=O [D-FMRF--NH2, D-Phe-Met-Arg-Phe-NH2] |  | ++ |  | 35 mm Hg | 45 mm Hg | 
